Measured values: article PMC4336329 (PLoS ONE, 2015)
Screen size: about 310,000 compounds; about 2,200 (0.71%) showed an effect of 50% or more. Effects have a minus sign here. The list shows a part of the results.

molecular target: human ether-à-go-go-related gene (hERG) potassium channel (human, UniProt Q12809); test: primary screen, population patch clamp on CHO cells stably expressing hERG
Sequence (Q12809 whole entry, looked up): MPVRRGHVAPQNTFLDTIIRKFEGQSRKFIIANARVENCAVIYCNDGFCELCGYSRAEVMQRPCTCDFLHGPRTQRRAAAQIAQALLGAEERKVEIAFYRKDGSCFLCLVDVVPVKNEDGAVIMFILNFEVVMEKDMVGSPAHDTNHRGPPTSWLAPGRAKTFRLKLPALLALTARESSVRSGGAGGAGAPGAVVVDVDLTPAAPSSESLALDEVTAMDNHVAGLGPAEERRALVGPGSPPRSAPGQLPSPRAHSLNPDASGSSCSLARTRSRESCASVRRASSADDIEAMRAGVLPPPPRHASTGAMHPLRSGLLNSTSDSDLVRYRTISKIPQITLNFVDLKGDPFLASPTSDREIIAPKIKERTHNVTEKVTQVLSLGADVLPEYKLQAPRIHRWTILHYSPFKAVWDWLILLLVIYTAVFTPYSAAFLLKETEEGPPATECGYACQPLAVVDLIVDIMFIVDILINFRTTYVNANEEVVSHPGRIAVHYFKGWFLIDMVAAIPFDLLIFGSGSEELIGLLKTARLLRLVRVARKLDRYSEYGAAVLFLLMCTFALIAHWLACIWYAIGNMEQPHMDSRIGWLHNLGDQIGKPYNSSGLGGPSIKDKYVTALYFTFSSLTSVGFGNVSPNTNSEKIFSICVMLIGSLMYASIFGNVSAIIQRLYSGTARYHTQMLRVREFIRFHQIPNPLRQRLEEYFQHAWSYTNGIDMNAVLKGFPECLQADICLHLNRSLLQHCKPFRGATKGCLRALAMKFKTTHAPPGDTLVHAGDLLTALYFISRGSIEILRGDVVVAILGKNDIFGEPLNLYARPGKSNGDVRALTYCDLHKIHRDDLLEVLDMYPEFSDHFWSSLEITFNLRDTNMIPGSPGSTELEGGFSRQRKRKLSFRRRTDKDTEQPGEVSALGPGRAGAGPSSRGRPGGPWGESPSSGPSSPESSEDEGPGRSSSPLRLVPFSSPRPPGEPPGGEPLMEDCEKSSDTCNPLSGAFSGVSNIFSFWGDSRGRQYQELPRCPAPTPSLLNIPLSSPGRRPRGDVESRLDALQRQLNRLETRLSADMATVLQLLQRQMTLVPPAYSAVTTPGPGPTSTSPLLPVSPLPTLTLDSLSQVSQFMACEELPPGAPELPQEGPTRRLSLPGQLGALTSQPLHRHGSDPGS

SMILES	hERG current change (%, negative = inhibition) at 1uM [%]
Cc1ccc2c(c1)c1nnc(SCC(=O)Nc3cccc(Cl)c3C)nc1n2CC(=O)O	15.5
COc1cccc(N(CC(=O)NCCSc2ccc(Cl)cc2)S(C)(=O)=O)c1	-13.1
CCc1ccc(OCC2c3cc(OC)c(OC)cc3CCN2C(=S)NC)cc1 (stereo not drawn)	4.64
CC1CCN(c2cc(=O)n(C3CCCCC3)c(=O)[nH]2)CC1	12.3
CCOC(=O)Cc1csc(NC(=O)COc2c(C)cccc2C)n1	12.5
Cc1nnc(-c2ccccc2)nc1N1CCOCC1	-0.422
COc1cc(C2C3=C(CCCC3=O)Nc3[nH]n(-c4ccccc4)c(=O)c32)cc(OC)c1OC (stereo not drawn)	9.61
Cc1nc(NC(=O)C(C)Oc2cccc(Cl)c2)sc1C(=O)N(C)C (stereo not drawn)	12.3
Cc1cccc(N=C2NC(=O)/C(=C/C=C/c3ccco3)S2)c1C	13.7
CCOC(=O)C1=C(COC(=O)COc2ccc(C(=O)CC)cc2)NC(=O)NC1C (stereo not drawn)	7.13
Cc1csc(NC(=O)c2cccc(Cn3nc(C)c(Br)c3C)c2)n1	7.2
O=C(N=C1SCC(=O)N1c1ccccc1Cl)c1ccco1	18.4
C=CCNC(=O)c1ccc(CNS(=O)(=O)c2ccc(NC(C)=O)cc2)cc1	17.3
CNS(=O)(=O)c1cccc(C(=O)OCC(=O)c2ccc[nH]2)c1	8.19
c1cncc(-c2nc(-c3ccc4c(c3)OCCO4)cs2)c1	9.93
Cc1nn(CCOc2ccc(Br)cc2)c(C)c1[N+](=O)[O-]	6.87
c1ccc2[nH]c(CSc3nnc(-c4ccncc4)o3)nc2c1	-16.4
COc1cccc(N2CCN(CC(=O)Nc3nc4c(s3)CC(C)CC4)CC2)c1 (stereo not drawn)	-3.53
O=C(CCc1nc2ccccc2c(=O)[nH]1)Nc1nnc(SCc2ccccc2)s1	-0.601
c1ccc(Cn2nnc3c(NCC4CCCO4)nc(C4CC4)nc32)cc1 (stereo not drawn)	0.112
COc1ccc(C(=O)N2c3ccccc3C(=O)OC2c2ccc3c(c2)OCO3)cc1 (stereo not drawn)	7.82
COCCN(C(=O)c1sc2ccccc2c1Cl)c1c(N)n(CC(C)C)c(=O)[nH]c1=O	13.9
CCN(CC)CCCn1c2c(c(SCC(=O)N3CCCc4ccccc43)nc1=O)CCC2	9.45
Nc1ccc(-c2nc3ncccc3o2)cc1	16.3
